From the supplement of paper PMC4967469

Assays:
Assay in all cases: Viability of human cancer cell lines after 72 h of drug (GDSC screen)
Etoposide = compound: COc1cc([C@@H]2c3cc4c(cc3[C@@H](O[C@@H]3O[C@@H]5CO[C@@H](C)O[C@H]5[C@H](O)[C@H]3O)[C@H]3COC(=O)[C@H]23)OCO4)cc(OC)c1O [Etoposide]; conditions: top dose 16 µM
Method: (§1)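 Human cancer cell lines in 384-well plates, medium with 10% serum, drug for 72 h over a 256-fold dose range (nine 2-fold or five 4-fold steps up to the top dose). Adherent lines were fixed and stained with the nucleic acid dye Syto60, suspension lines read with resazurin; signal relative to control wells, capped at 0 and 100%. One two-parameter sigmoid per drug and line, fitted in a mixed model over all curves with the slope shared within a line.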

NPK76-II-72-1 = compound: COc1cc(C(=O)NC2CCN(C)CC2)ccc1Nc1ncc2c(n1)N(C1CCCC1)C(C)CC(=O)N2C [NPK76-II-72-1]; conditions: top dose 10.24 µM; top dose inferred
Method: as §1

GSK-650394 = compound: O=C(O)c1ccc(-c2c[nH]c3ncc(-c4ccccc4)cc23)cc1C1CCCC1 [GSK-650394]; conditions: top dose 16 µM; top dose inferred
Method: as §1

BMS-345541 = compound: Cc1ccc2nc(NCCN)c3ncc(C)n3c2c1 [BMS-345541]; conditions: top dose 16 µM
Method: as §1

Bexarotene = compound: C=C(c1ccc(C(=O)O)cc1)c1cc2c(cc1C)C(C)(C)CCC2(C)C [Bexarotene]; conditions: top dose 8 µM
Method: as §1

XAV 939 = compound: Oc1nc(-c2ccc(C(F)(F)F)cc2)nc2c1CSCC2 [XAV 939]; conditions: top dose 5 µM; top dose inferred
Method: as §1

YK 4-279 = compound: COc1ccc(C(=O)CC2(O)C(=O)Nc3c(Cl)ccc(Cl)c32)cc1 [YK 4-279]; conditions: top dose 10 µM
Method: as §1

| Cell Line | AUC (Etoposide) | IC50 (Etoposide) [µM] | AUC (NPK76-II-72-1) | IC50 (NPK76-II-72-1) [µM] | AUC (GSK-650394) | IC50 (GSK-650394) [µM] | AUC (BMS-345541) | IC50 (BMS-345541) [µM] | AUC (Bexarotene) | IC50 (Bexarotene) [µM] | AUC (XAV 939) | IC50 (XAV 939) [µM] | AUC (YK 4-279) | IC50 (YK 4-279) [µM] |
| --- | --- | --- | --- | --- | --- | --- | --- | --- | --- | --- | --- | --- | --- | --- |
| COR-L105 (lung adenocarcinoma, adherent) | 0.801 | 9.91 | 0.892 | > 10.2 | 0.842 | 15 | 0.846 | 15.7 | 0.951 | > 8 | 0.918 | > 5 | 0.907 | > 10 |
| ChaGo-K-1 (non-small cell lung carcinoma, adherent) | 0.673 | 3.29 | 0.951 | > 10.2 | 0.887 | > 16 | 0.865 | > 16 | 0.942 | > 8 | 0.957 | > 5 | 0.64 | 1.63 |
| ES3 (Ewing sarcoma, adherent) | 0.446 | 0.709 | 0.743 | 3.33 | 0.93 | > 16 | 0.851 | 13.2 | 0.966 | > 8 | 0.984 | > 5 | 0.733 | 3 |
| ES4 (Ewing sarcoma, adherent) | 0.439 | 0.666 | 0.949 | > 10.2 | 0.692 | 3.78 | 0.887 | > 16 | 0.713 | 2.22 | 0.98 | > 5 | 0.731 | 3.17 |
| GAMG (glioma, adherent) | 0.634 | 2.39 | 0.784 | 4.57 | 0.627 | 2.28 | 0.876 | > 16 | 0.913 | > 8 | 0.934 | > 5 | 0.778 | 4.26 |
| GCT (soft tissue, adherent) | 0.699 | 3.45 | 0.989 | > 10.2 | 0.987 | > 16 | 0.987 | > 16 | 0.961 | > 8 | 0.985 | > 5 | 0.675 | 1.84 |
| H2591 (mesothelioma, adherent) | 0.642 | 2.79 | 0.959 | > 10.2 | 0.927 | > 16 | 0.908 | > 16 | 0.924 | > 8 | 0.953 | > 5 | 0.774 | 5.16 |
| H2818 (mesothelioma, adherent) | 0.963 | > 16 | 0.979 | > 10.2 | 0.989 | > 16 | 0.971 | > 16 | 0.985 | > 8 | 0.988 | > 5 | 0.808 | 5.33 |
| HEL (acute myeloid leukaemia, semi-adherent) | 0.72 | 3.68 | 0.878 | 7.47 | 0.769 | 5.08 | 0.844 | 8.72 | 0.989 | > 8 | 0.991 | > 5 | 0.782 | 3.46 |
| HLE (liver, adherent) | 0.417 | 0.603 | 0.744 | 3.04 | 0.507 | 1.04 | 0.971 | > 16 | 0.945 | > 8 | 0.987 | > 5 | 0.703 | 2.24 |
| HO-1-N-1 (head and neck, adherent) | 0.637 | 2.3 | 0.971 | > 10.2 | 0.975 | > 16 | 0.894 | > 16 | 0.986 | > 8 | 0.932 | > 5 | 0.533 | 0.764 |
| HPAF-II (pancreas, adherent) | 0.868 | > 16 | 0.889 | > 10.2 | 0.977 | > 16 | 0.877 | > 16 | 0.88 | > 8 | 0.935 | > 5 | 0.797 | 6.44 |
| HSC-3 (head and neck, adherent) | 0.562 |  | 0.986 | > 10.2 | 0.857 | 10.2 | 0.922 | > 16 | 0.888 | 6.76 | 0.975 | > 5 | 0.588 | 1.05 |
| HTC-C3 (thyroid, adherent) | 0.873 | > 16 | 0.937 | > 10.2 | 0.815 | 10.2 | 0.896 | > 16 | 0.926 | > 8 | 0.978 | > 5 | 0.702 | 2.5 |
| Hs940-T (melanoma, adherent) | 0.536 | 1.28 | 0.984 | > 10.2 | 0.755 | 6.51 | 0.937 | > 16 | 0.865 | > 8 | 0.941 | > 5 | 0.848 | 9.99 |
| Hs-445 (Hodgkin lymphoma, suspension) | 0.381 | 0.483 | 0.824 | 5.48 | 0.986 | > 16 | 0.842 | 10 | 0.989 | > 8 | 0.988 | > 5 | 0.704 | 2.22 |
| IGR-37 (melanoma, adherent) | 0.636 | 2.29 | 0.92 | > 10.2 | 0.797 | 6.82 | 0.958 | > 16 | 0.811 | 3.8 | 0.981 | > 5 | 0.655 | 1.62 |
| JAR (urogenital system, adherent) | 0.958 | > 16 | 0.899 | > 10.2 | 0.982 | > 16 | 0.838 | 10.5 | 0.987 | > 8 | 0.971 | > 5 | 0.554 | 0.876 |
| KALS-1 (glioma, adherent) | 0.79 |  | 0.921 | > 10.2 | 0.835 | > 16 | 0.806 | 12.1 | 0.844 | > 8 | 0.946 | > 5 | 0.768 | 5.17 |

Lines with a small IC50 respond at low doses; where the fit passes the top or lowest dose, that dose stands as a limit. For AUC the same curve is integrated over the 256-fold range of doses and scaled to a fraction; values near 1 show little effect. For part of these data: Any top dose called inferred was derived from the fitted curves, not read from the paper.
